In the supplement of paper PMC9446081:
Out of some 39,000 compounds screened, about 220 (0.56%) showed activity. Some of the results follow.

test system: Escherichia coli K-12 BW25113; assay: relative growth (OD600 normalised to plate interquartile mean) (fraction); higher = less growth inhibition, active = 0.2 or less; settings: 50 µM; LB; incubation time: overnight (16-24 h)
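Further: static incubation at 37 °C against the wild-type strain, values averaged over two biological replicates.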

Row | SMILES | relative growth
1 | Cc1noc(C)c1NC(=O)N(C)C[C@H]1OCCCC[C@H](C)Oc2ccc(NC(=O)CCC(F)(F)F)cc2C(=O)N([C@@H](C)CO)C[C@H]1C | inactive: 1.01
2 | Cc1ccccc1S(=O)(=O)N1C[C@@H](O)COC[C@@H]2O[C@@H](CC(=O)N3CCOCC3)CC[C@H]21 | inactive: 1.01
3 | CC1(C)[C@@H](OC(=O)CCC(=O)O)CC[C@]2(C)[C@H]3C(=O)C=C4[C@@H]5C[C@@](C)(C(=O)O)CC[C@]5(C)CC[C@@]4(C)[C@]3(C)CC[C@@H]12 | inactive: 1.02
4 | COCCOC(=O)N1C(=O)[C@@]2(c3cc(C#Cc4ccc(OC)cc4)ccc31)[C@H](c1ccc(OCCO)cc1)N1[C@H](c3ccccc3)[C@H](c3ccccc3)OC(=O)[C@H]1[C@@H]2C(=O)NC[C@H](O)c1ccccc1 | inactive: 1.04
5 | C[C@H]1CN([C@@H](C)CO)C(=O)c2cc(NC(=O)Nc3ccc(F)cc3)ccc2O[C@H]1CN(C)Cc1ccc(C(=O)Nc2ccccc2N)cc1 | inactive: 1.01
6 | O=C1[O][Bi]([OH])[O]c2ccccc21 | inactive: 1.05
7 | C[C@@H]1CN([C@H](C)CO)C(=O)c2cc(NC(=O)CCCCCC(=O)Nc3ccccc3N)ccc2O[C@@H]1CN(C)Cc1ccccc1 | inactive: 1.03
8 | C[C@@H]1CCCCO[C@H](CN(C)S(=O)(=O)c2ccc(F)cc2)[C@H](C)CN([C@@H](C)CO)C(=O)c2cc(NC(=O)Nc3cccc4ccccc34)ccc2O1 | inactive: 0.985
9 | COc1ccc(CN(C)C[C@@H]2Oc3c(NC(=O)c4cc(C)nn4C)cccc3C(=O)N([C@@H](C)CO)C[C@H]2C)cc1 | inactive: 0.957
10 | Cc1onc(-c2ccccc2)c1CN | inactive: 0.978
11 | CS(=O)(=O)O.OC(CCN1CCCCC1)(c1ccccc1)c1ccccc1 | inactive: 1.12
12 | Cc1ccc(S(=O)(=O)Nc2cccc3c2O[C@H](CN(C)CC2CC2)[C@@H](C)CN([C@@H](C)CO)C3=O)cc1 | inactive: 0.993
13 | C[C@H](CO)N1C[C@H](C)[C@H](CN(C)C)OCCCC[C@H](C)Oc2ccc(NS(=O)(=O)c3cn(C)cn3)cc2C1=O | inactive: 0.977
14 | COc1ccc(NC(=O)Nc2ccc3c(c2)[C@H]2C[C@@H](CC(=O)NCc4ccccn4)O[C@@H](CO)[C@H]2O3)cc1 | inactive: 0.994
15 | Cc1noc(C)c1S(=O)(=O)Nc1ccc2c(c1)CC(=O)N([C@H](C)CO)C[C@@H](C)[C@@H](CN(C)Cc1ccc(C(=O)O)cc1)O2 | inactive: 0.985
16 | O=C(Cn1cc(COc2ccc(-n3cccc3)cc2)nn1)NS(=O)(=O)c1ccccc1C(F)(F)F | inactive: 1
17 | CS(=O)(=O)N1CCN2C[C@H](C(=O)O)CN(Cc3ccco3)C[C@@H]2C1 | inactive: 1.01
18 | C[C@@H]1CCCCO[C@H](CN(C)Cc2ccncc2)[C@H](C)CN([C@@H](C)CO)C(=O)c2cc(NC(=O)Nc3ccccc3)ccc2O1 | inactive: 0.98
19 | C=CCOC(=O)[C@@H]1[C@H]2C(=O)O[C@H](c3ccccc3)[C@H](c3ccccc3)N2[C@H](c2ccc(OCCOC(=O)[C@H]3C[C@H]4C(=O)N[C@@H](CC(C)C)C(=O)N4[C@H]3c3ccc(O)cc3)cc2)[C@@]12C(=O)Nc1ccc(I)cc12 | inactive: 1.06
20 | C[C@H]1CN([C@@H](C)CO)C(=O)c2cc(NS(=O)(=O)c3ccc(Cl)cc3)ccc2O[C@@H]1CN(C)C(=O)Nc1cccc2ccccc12 | inactive: 0.991

Row | SMILES | relative growth
21 | C[C@H](CO)N1C[C@H](C)[C@H](CN(C)Cc2ccc(Oc3ccccc3)cc2)Oc2ccc(NC(=O)CCCCCC(=O)Nc3ccccc3N)cc2CC1=O | inactive: 0.94
22 | C[C@@H]1CN([C@@H](C)CO)C(=O)Cc2cc(NC(=O)CCN3CCOCC3)ccc2O[C@H]1CN(C)C(=O)Nc1ccccc1 | inactive: 0.96
23 | CC(C)NC(=O)N(C)C[C@@H]1Oc2ccc(NC(=O)CCCN(C)C)cc2C(=O)N([C@H](C)CO)C[C@@H]1C | inactive: 0.948
24 | C[C@H]1OC(=O)CC[C@@H](O)/C=C/[C@@H](O)[C@@H]1O | inactive: 0.988
25 | COCC#Cc1ccc2c(c1)O[C@@H](CN(C)C(=O)Nc1ccc(OC)cc1)[C@@H](C)CN([C@@H](C)CO)S2(=O)=O | inactive: 1.03
26 | C[C@@H]1CCCCO[C@H](CN(C)S(=O)(=O)c2ccc(Cl)cc2)[C@@H](C)CN([C@H](C)CO)C(=O)c2cc(NC(=O)NC3CCCCC3)ccc2O1 | inactive: 0.975
27 | C[C@@H]1CN([C@H](C)CO)C(=O)c2cc(-c3cccnc3)cnc2O[C@@H]1CN(C)Cc1ccc(Oc2ccccc2)cc1 | inactive: 1.01
28 | COc1ccc(S(=O)(=O)Nc2ccc3c(c2)C(=O)N([C@H](C)CO)C[C@H](C)[C@@H](CN(C)Cc2ccc(C(=O)O)cc2)OCCCC[C@H](C)O3)cc1 | inactive: 0.992
29 | COc1ccccc1CNC(=O)C[C@@H]1CC[C@@H]2[C@H](COC[C@@H](O)CN2C(=O)Nc2ccc(Cl)cc2)O1 | inactive: 0.883
30 | C[C@H]1CN([C@@H](C)CO)C(=O)c2cccc(NS(=O)(=O)c3ccc(F)cc3)c2O[C@H]1CN(C)CC1CC1 | inactive: 0.994
31 | Cc1noc(C)c1S(=O)(=O)Nc1ccc2c(c1)C(=O)N([C@H](C)CO)C[C@@H](C)[C@@H](CN(C)Cc1ccc(Cl)c(Cl)c1)OCCCC[C@H](C)O2 | inactive: 0.964
32 | C[C@H](CO)N1C[C@H](C)[C@@H](CN(C)Cc2ccc3c(c2)OCO3)Oc2ncc(Br)cc2C1=O | inactive: 1.05
33 | C[C@@H]1CN([C@H](C)CO)C(=O)Cc2cc(NC(=O)Cn3cnnn3)ccc2O[C@H]1CN(C)S(C)(=O)=O | inactive: 1
34 | C[C@H](CO)N1C[C@H](C)[C@H](CN(C)Cc2ccc(C(=O)Nc3ccccc3N)cc2)Oc2c(NC(=O)NC3CCCCC3)cccc2C1=O | inactive: 1.01
35 | C[C@@H]1CN([C@@H](C)CO)C(=O)c2cc(C#CC(C)(C)O)cnc2O[C@H]1CN(C)C(=O)CN(C)C | inactive: 0.986
36 | Cn1cnc(S(=O)(=O)N[C@@H]2CC[C@H](CC(=O)NCC3CC3)O[C@H]2CO)c1 | inactive: 0.932
37 | COc1ccc(CSCCN)cc1Cl | inactive: 1.01
38 | CC(C)NC(=O)Nc1cccc2c1O[C@@H](CN(C)S(=O)(=O)c1ccccc1)[C@@H](C)CN([C@@H](C)CO)C2=O | inactive: 0.993
39 | COc1ccc(NC(=O)N(C)C[C@H]2OCCCC[C@@H](C)Oc3ccc(NS(=O)(=O)c4c(C)noc4C)cc3C(=O)N([C@H](C)CO)C[C@H]2C)cc1 | inactive: 0.996
40 | COc1ccc(S(=O)(=O)N2C[C@@H](O)COC[C@H]3O[C@@H](CC(=O)NCCN4CCCCC4)CC[C@@H]32)cc1 | inactive: 1.01

Row | SMILES | relative growth
41 | COc1ccc(NC(=O)Nc2ccc3c(c2)C(=O)N([C@@H](C)CO)C[C@@H](C)[C@@H](CN(C)S(=O)(=O)c2ccc(Cl)cc2)OCCCC[C@@H](C)O3)cc1 | inactive: 1.03
42 | CS(=O)(=O)c1cc(F)ccc1N | inactive: 0.965
43 | C[C@@H]1CCCCO[C@@H](CN(C)Cc2ccc(C(F)(F)F)cc2)[C@H](C)CN([C@@H](C)CO)C(=O)c2cc(NC(=O)c3ccncc3)ccc2O1 | inactive: 0.86
44 | CCCNC(=O)N(C)c1nncnc1C(=O)NC | inactive: 1.01
45 | COC(=O)c1c(CC[C@@H](COC(=O)NCCCCCC(=O)NO)NC(=O)N[C@@H](Cc2ccccc2)Cn2cc(-c3ccccc3)nn2)oc(C(=O)N2CCOCC2)c1C(=O)OC | inactive: 1.02
46 | C[C@@H]1CCCCO[C@@H](CN(C)C(=O)C2CCCCC2)[C@H](C)CN([C@@H](C)CO)C(=O)c2cc(NC(=O)Nc3ccc4c(c3)OCO4)ccc2O1 | inactive: 1.02
47 | COCC#Cc1ccc2c(c1)O[C@@H](CN(C)Cc1ccccc1F)[C@H](C)CN([C@H](C)CO)S2(=O)=O | inactive: 1.05
48 | O=C(C[C@@H]1C=C[C@@H](NC(=O)CN2CCOCC2)[C@@H](CO)O1)NCCc1ccncc1 | inactive: 1
49 | COc1ccc([Si](C)(C)[C@@H]2[C@@H](CCn3cc(CCO)nn3)O[C@]3(C(=O)N(Cc4ccc(N5C(=O)c6cccc7cccc5c67)cc4)c4ccccc43)[C@H]2C)cc1 | inactive: 1.02
50 | COc1ccc(S(=O)(=O)Nc2ccc3c(c2)C(=O)N([C@@H](C)CO)C[C@@H](C)[C@@H](CN(C)S(=O)(=O)c2ccc(Cl)cc2)OCCCC[C@H](C)O3)cc1 | inactive: 1.02
51 | Oc1ccc2c(c1)OCC1(O)Cc3cc(O)c(O)cc3C21 (centres undefined) | inactive: 1.11
52 | Cc1ncc([N+](=O)[O-])n1C[C@@H](C)O | inactive: 1.03
53 | C[C@@H]1CN([C@@H](C)CO)C(=O)c2cc(C#CC3(O)CCCC3)cnc2O[C@@H]1CN(C)C(=O)C1CCOCC1 | inactive: 0.962
54 | CCCC#Cc1ccc2c(c1)O[C@H](CN(C)Cc1ccc3c(c1)OCO3)[C@@H](C)CN([C@@H](C)CO)S2(=O)=O | inactive: 0.901
55 | COc1ccccc1CNC(=O)C[C@H]1C[C@@H]2c3cc(NC(=O)c4cccnc4)ccc3O[C@@H]2[C@@H](CO)O1 | inactive: 1
56 | C[C@H](CO)N1C[C@H](C)[C@H](CN(C)C(=O)Nc2ccc(C(F)(F)F)cc2)OCCCC[C@H](C)Oc2ccc(NC(=O)Nc3ccc(F)cc3)cc2C1=O | inactive: 0.986
57 | COCC(=O)N1C[C@H](C)[C@@H](OC)CN(C)C(=O)c2ccc(NC(=O)Nc3cccc(F)c3)cc2OC[C@H]1C | inactive: 0.997
58 | COc1cc(C(=O)NC2CCCNC2)cc(OC)c1OC (centres undefined) | inactive: 1.08
59 | CCOC(=O)/C(C#N)=C1/C=CN(C)C=N1 | inactive: 0.942
